Data on four molecules can be found in patent US20240141070A1 (JIANGSU ALPHAMAB BIOPHARMACEUTICALS, published 2024).

B1: KN052-1 (bispecific antibody, human IgG1, kappa)
light: EIVLTQSPATLSLSPGERATLSCRASQSVGSYLAWYQQKPGQAPRLLIYDASNRATGIPARFSGSGSGTDFTLTISSLEPEDFAVYYCQQRSNWPPGYTFGQGTKLEIKRTVAAPSVFIFPPSDEQLKSGTASVVCLLNNFYPREAKVQWKVDNALQSGNSQESVTEQDSKDSTYSLSSTLTLSKADYEKHKVYACEVTHQGLSSPVTKSFNRGEC
heavy: QVQLVESGGGLVQPGGSLRLSCAASGKMSSRRCMAWFRQAPGKERERVAKLLTTSGSTYLADSVKGRFTISRDNSKNTVYLQMNSLRAEDTAVYYCAADSFEDPTCTLVTSSGAFQYWGQGTLVTVSSGAPQVQLQQSGPGLVKPSQTLSLTCAISGDSVSSNSVSWDWIRQSPSRGLEWLGRTYYRSKWYNEYAVSVESRITINPDTSKNQFSLQLNSVTPEDTAIYFCVRNDYFFDLWGRGTLVTVSS[gap - human IgG1 constant region]
notes: Expressed in HEK293, purified on protein A
B2: KN052-4 (bispecific antibody, human IgG1, kappa)
light: EIVLTQSPATLSLSPGERATLSCRASQSVGSYLAWYQQKPGQAPRLLIYDASNRATGIPARFSGSGSGTDFTLTISSLEPEDFAVYYCQQRSNWPPGYTFGQGTKLEIKRTVAAPSVFIFPPSDEQLKSGTASVVCLLNNFYPREAKVQWKVDNALQSGNSQESVTEQDSKDSTYSLSSTLTLSKADYEKHKVYACEVTHQGLSSPVTKSFNRGEC
heavy: QVQLQQSGPGLVKPSQTLSLTCAISGDSVSSNSVSWDWIRQSPSRGLEWLGRTYYRSKWYNEYAVSVESRITINPDTSKNQFSLQLNSVTPEDTAIYFCVRNDYFFDLWGRGTLVTVSS[gap - human IgG1 constant region]STKGPSVFPLAGAPQVQLVESGGGLVQPGGSLRLSCAASGKMSSRRCMAWFRQAPGKERERVAKLLTTSGSTYLADSVKGRFTISRDNSKNTVYLQMNSLRAEDTAVYYCAADSFEDPTCTLVTSSGAFQYWGQGTLVTVSS
B3: KN052-3 (bispecific antibody, human IgG1, kappa)
light: EIVLTQSPATLSLSPGERATLSCRASQSVGSYLAWYQQKPGQAPRLLIYDASNRATGIPARFSGSGSGTDFTLTISSLEPEDFAVYYCQQRSNWPPGYTFGQGTKLEIKRTVAAPSVFIFPPSDEQLKSGTASVVCLLNNFYPREAKVQWKVDNALQSGNSQESVTEQDSKDSTYSLSSTLTLSKADYEKHKVYACEVTHQGLSSPVTKSFNRGEC
heavy: QVQLQQSGPGLVKPSQTLSLTCAISGDSVSSNSVSWDWIRQSPSRGLEWLGRTYYRSKWYNEYAVSVESRITINPDTSKNQFSLQLNSVTPEDTAIYFCVRNDYFFDLWGRGTLVTVSS[gap - human IgG1 constant region]APQVQLVESGGGLVQPGGSLRLSCAASGKMSSRRCMAWFRQAPGKERERVAKLLTTSGSTYLADSVKGRFTISRDNSKNTVYLQMNSLRAEDTAVYYCAADSFEDPTCTLVTSSGAFQYWGQGTLVTVSS
notes: also called KNO52-3
B4: KN052-2 (bispecific antibody, human IgG1, kappa)
light: EIVLTQSPATLSLSPGERATLSCRASQSVGSYLAWYQQKPGQAPRLLIYDASNRATGIPARFSGSGSGTDFTLTISSLEPEDFAVYYCQQRSNWPPGYTFGQGTKLEIKRTVAAPSVFIFPPSDEQLKSGTASVVCLLNNFYPREAKVQWKVDNALQSGNSQESVTEQDSKDSTYSLSSTLTLSKADYEKHKVYACEVTHQGLSSPVTKSFNRGEC
heavy: QVQLVESGGGLVQPGGSLRLSCAASGKMSSRRCMAWFRQAPGKERERVAKLLTTSGSTYLADSVKGRFTISRDNSKNTVYLQMNSLRAEDTAVYYCAADSFEDPTCTLVTSSGAFQYWGQGTLVTVSSASTKGPSVFPLAGAPQVQLQQSGPGLVKPSQTLSLTCAISGDSVSSNSVSWDWIRQSPSRGLEWLGRTYYRSKWYNEYAVSVESRITINPDTSKNQFSLQLNSVTPEDTAIYFCVRNDYFFDLWGRGTLVTVSS[gap - human IgG1 constant region]

In this assay the target is T1, human PD-L1 protein on cells (A375-hPD-L1 cells; PD-L1 aAPC/CHO-K1 cells; PD-L1-expressing CHO cells) (human, UniProt Q9NZQ7).
Chain of UniProt Q9NZQ7 (Q9NZQ7 19-290): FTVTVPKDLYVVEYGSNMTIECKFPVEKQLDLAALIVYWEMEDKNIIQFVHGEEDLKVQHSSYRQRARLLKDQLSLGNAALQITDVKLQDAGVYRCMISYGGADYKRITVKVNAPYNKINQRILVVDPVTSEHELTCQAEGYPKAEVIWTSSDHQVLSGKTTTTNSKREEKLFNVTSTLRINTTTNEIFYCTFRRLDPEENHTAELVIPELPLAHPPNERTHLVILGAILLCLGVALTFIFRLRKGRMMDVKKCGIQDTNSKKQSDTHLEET
T1 construct: whole, on cells
The assay can be described thus: flow cytometry (MFI) on A375-hPD-L1 cells. For orientation: A flow cytometer gives signals particle by particle.
B1: the binding result is given as “binds”.
With B2, the binding result is “binds”.
As to B3, the binding result is given as “binds”.
As to B4, the binding result was “binds”.
